Laboratory results: PubChem BioAssay AID686978 (National Center for Advancing Translational Sciences (NCATS), 2013)
The campaign covered roughly 420,000 compounds. About 64,000 (15%) were called active. The inconclusive results got no clear call from the source; some entries with a clear call stand among them for comparison. Calls follow the shape of the dose curve; as a rule, active = well fitted inhibition curve with a large enough effect; inconclusive = small, poorly fitted or top-dose-only effect; inactive = flat fitted curve, though single readings scatter. No potency is given beside an inconclusive call; the fits are too rough.

Experiment: qHTS for Inhibitors of human tyrosyl-DNA phosphodiesterase 1 (TDP1): qHTS in cells in absence of CPT; also: nearly all actives have a fitted effect of over 55% in size
Details: DT40 Tdp1-/- hTDP1 cells, no CPT, ATP luminescence, 48 h; activity change, negative = growth inhibition: at 46.2 µM (top of the series) unless noted
Summary of the method: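 A cellular qHTS used chicken DT40 cells lacking endogenous Tdp1 but carrying stably transfected human TDP1. Compounds were applied without camptothecin, and cell growth kinetics were judged by ATP-dependent luminescence after ≥48 hr.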
% is scaled to controls: 0 for no effect and ±100 for the full control effect; potency is read from the fitted curve at half-maximal effect; tags tell the direction and shape of the fitted curve.

SMILES	activity change, negative = growth inhibition	Potency
CCC(C(=O)NCC1CCCO1)N(C(=O)CNS(=O)(=O)c1ccccc1)c1ccc(F)cc1 (centres undefined)	inactive: -17.7%	–
Cc1ccc(Sc2c(C=O)c3ccccc3n2C)cc1	–	inconclusive [inhibitor, partial curve]
C=CCNC(=O)N1C2=NC(C(=O)OC)=C(C(=O)OC)[C@@H]3N(Cc4ccccc4)c4ccccc4[C@]23C[C@H]1C(=O)OC	inactive: -17.7%	–
COc1ccccc1C(=O)NNC(=S)Nc1ccccc1	–	inconclusive [inhibitor, partial curve, poor fit]
O=C(NCCc1ccccc1)c1cccc2c(-c3ccc(F)c(F)c3)coc12	inactive: -43.5%	–
O=C(NNc1nc2ccccc2nc1C(F)(F)F)c1ccccc1	–	inconclusive [inhibitor, single point]
CCOc1ccc(-c2csc3ncnc(Nc4cccc(O)c4)c23)cc1	–	inconclusive [inhibitor, single point]
COc1ccccc1CCC(=O)NNC(=O)Cn1nc(C)cc1C	inactive: 0.357%	–
CCN(Cc1ccccc1)S(=O)(=O)c1ccccc1Br	–	inconclusive [inhibitor, single point]
COc1ccc(NC(=O)c2ccc(C)cc2)cc1	inactive: -13.8%	–
c1cc(-c2ccc(CN3CCOCC3)cc2)n2ccnc2c1	inactive: -16.1%	–
O=C(CSc1n[nH]c(=O)n1C1CC1)Nc1ccc(Cl)cc1Cl	inactive: -9.77%	–
CCOC(=O)Cn1nc(C)c(NC(=O)COc2ccc(OC)cc2)c1C	–	inactive
CCOc1ccccc1N(CC(=O)Nc1cccnc1)S(=O)(=O)c1ccc(C)cc1	–	inconclusive [inhibitor, single point]
CCOC(=O)c1c(C)oc2nc(C)nc(N3CCN(c4ccc(C)cc4C)CC3)c12	–	inconclusive [inhibitor, partial curve]
CC(=O)c1ccc(NS(=O)(=O)c2c(C)cc(C)cc2C)cc1	–	inconclusive [inhibitor, partial curve, poor fit]
COc1ccc(CCNC(=O)C2CCN(C(=O)c3cccs3)CC2)cc1	inactive: -21.1%	–
COc1ccc(C(=O)NCC(c2ccco2)S(=O)(=O)c2ccccc2)cc1 (centres undefined)	–	inconclusive [inhibitor, single point]
O=C(CSc1nnc(-c2ccco2)n1Cc1ccco1)N1CCOCC1	inactive: -17.1%	–
O=C(NC(=S)Nc1cccc(O)c1)C12CC3CC(CC(C3)C1)C2	–	inconclusive [inhibitor, single point]
COc1cc(C(=O)NCc2cccc3ccccc23)ccc1OCc1ccccc1	–	inconclusive [inhibitor, partial curve]
Cc1ccc(S(=O)(=O)NC2CC3CCC2C3)cc1 (centres undefined)	inactive: 2.84%	–
Cc1ccc(-c2nc3cc(C)c(Br)c(C)n3c2CC2CCCCC2)cc1	–	active: 13 µM
CC(C)CCn1cnc2c(oc3nc4c(cc32)CCCC4)c1=O	–	active: 20.6 µM
Cc1ccccc1OCC1Cn2c(nc3c2c(=O)[nH]c(=O)n3C)O1 (centres undefined)	–	inconclusive [inhibitor, partial curve]

SMILES	activity change, negative = growth inhibition	Potency
C=CCOc1ccc(C2/C(=C(\O)c3ccc4c(c3)OCCO4)C(=O)C(=O)N2CCCN2CCOCC2)cc1 (centres undefined)	inactive: 26.7%	–
COc1ccc(C)cc1NS(=O)(=O)c1ccc2c(c1)CCN2C(C)=O	inactive: -23.8%	–
CC1(C)O[C@@H]2C[C@H]3[C@@H]4CCC5=CC(=O)C=C[C@]5(C)[C@@]4(F)[C@@H](O)C[C@]3(C)[C@]2(C(=O)CO)O1	–	inactive
CC1CC/C(=N/Nc2ccccc2)C(=O)N1 (centres undefined)	inactive: -8.5%	–
COc1cccc(-c2nccc(NCc3cccnc3)n2)c1	–	inconclusive [inhibitor, single point]
CC(=O)N1CCCc2cc(S(=O)(=O)N3CCC(C(=O)NCc4ccc(F)cc4)CC3)ccc21	–	inconclusive [inhibitor, single point]
CCN1c2ccccc2NC2N=C(OC)C(c3ccccc3)C21 (centres undefined)	–	active: 13 µM
CN(Cc1cn(C)nc1-c1ccc(Oc2ccccc2)cc1)CC1COCCO1 (centres undefined)	–	inconclusive [inhibitor, single point]
CCCN(C(=O)C1CCN(S(=O)(=O)c2c(C)noc2/C=C/c2ccc(C)cc2)CC1)c1ccccc1F	–	active: 23.1 µM
C=CCN(c1ccc(OC)cc1)S(=O)(=O)c1ccc(Cl)c(C(=O)OCC(=O)c2c(N)n(C)c(=O)n(C)c2=O)c1	–	inconclusive [inhibitor, single point]
CC(=O)c1cn(CCOc2ccc(F)cc2)c2ccccc12	–	inconclusive [inhibitor, partial curve]
CCOC(=O)/C(C#N)=C\c1ccc(N2CCN(C/C=C/c3ccccc3)CC2)cc1	–	active: 20.6 µM
Cc1cccc(NC(=O)C2CCC(CNS(=O)(=O)c3ccc4c(c3)CCCC(=O)N4)CC2)c1C (centres undefined)	inactive: -26.2%	–
COc1ccc(OC)c(Nc2nc3ccc(C)cc3n3cnnc23)c1	–	inconclusive [inhibitor, partial curve]
C=CCC1C=CCC(CC=C)N1C(=O)c1ccccc1[N+](=O)[O-] (centres undefined)	–	inconclusive [inhibitor, partial curve, poor fit]
COc1ccc(CN2C3CCC2CC(NC(=O)c2cc(OC)c(OC)c(OC)c2)C3)cc1 (centres undefined)	inactive: 21%	–
COc1ccccc1CNc1ncncc1-c1cccc(NS(C)(=O)=O)c1	inactive: 19.5%	–
O=C(CSc1nnc(NC(=O)c2ccc(F)cc2)s1)NC1CCCC1	inactive: -0.0506%	–
CC1CC(C)CN(C(=S)Nc2ccc3nc4n(c(=O)c3c2)CCCCC4)C1 (centres undefined)	–	inconclusive [inhibitor, single point]
COc1ccc(C(=O)Nc2cccc3c2CCCC3)c(OC)c1	–	inconclusive [inhibitor, partial curve, poor fit]
O=C(c1csc2ccccc12)N1CCCCCC1	–	active: 18.4 µM
COc1cccc(CNc2nc(-c3cccnc3)nc3ccccc23)c1	–	inconclusive [inhibitor, single point]
Cc1nc(-c2ccc(F)cc2)sc1CCNC(=O)c1ccccc1	–	active: 23.1 µM
COc1cc(/C=C2/CC(C)OC2=O)c([N+](=O)[O-])cc1OC (centres undefined)	–	inconclusive [inhibitor, single point]
Cc1cc(C)cc(N(C)S(=O)(=O)c2nnc(NC(=O)COc3ccc(C)c(C)c3)s2)c1	inactive: -13.3%	–

SMILES	activity change, negative = growth inhibition	Potency
CCCOc1ccc(N2C(=O)CC(NCCCN3CCC(C(N)=O)CC3)C2=O)cc1 (centres undefined)	–	inconclusive [inhibitor, single point]
COc1ccc(NC(=O)CNS(=O)(=O)c2ccc(Cl)cc2)cc1OC	–	inconclusive [inhibitor, single point]
Cc1onc(-c2ccccc2Cl)c1C(=O)N1CCc2ccccc21	–	inconclusive [inhibitor, single point]
O=C(O)c1ccc(COc2ccc3ccccc3c2/C=C2/NC(=O)N(c3ccccc3)C2=O)cc1	–	inconclusive [inhibitor, single point]
COc1ccc(OC)c(NC(=O)c2ccc(S(=O)(=O)N3CCN(C)CC3)cc2)c1	inactive: -26.4%	–
COC(=O)c1sccc1NC(=O)/C=C/c1c(Cl)cccc1Cl	–	inconclusive [inhibitor, single point]
COc1ccccc1NC(=O)C1CCN(S(C)(=O)=O)CC1	inactive: 7.92%	–
COc1ccc(S(=O)(=O)N(CC(=O)Nc2ccccc2C(=O)N2CCOCC2)c2ccc(F)cc2)cc1	–	inconclusive [inhibitor, single point]
CCOC(=O)c1cnc(-n2nc(C)cc2C)nc1NCc1ccccc1	–	active: 5.17 µM
C[C@@H]1CN(C(=O)c2cc(COc3cccc(C(F)(F)F)c3)on2)C[C@H](C)O1	–	inconclusive [inhibitor, single point]
CNC(=O)C12CCC(C)(c3nc4cc(C)c(C)cc4nc31)C2(C)C (centres undefined)	–	inconclusive [inhibitor, single point]
Cc1ccc(-c2nnn(CC(=O)N(Cc3ccco3)C(C(=O)NC(C)(C)C)c3cccs3)n2)o1 (centres undefined)	–	inconclusive [inhibitor, single point]
Cc1ccc(CC(=O)NCC(O)c2ccccc2)cc1 (centres undefined)	inconclusive: -31% [inhibitor]	–
CCOc1cc(CN2CCCC(CNC(=O)c3ccc(F)cc3)C2)ccc1OC (centres undefined)	inactive: -10.7%	–
Cc1cc(NC(=O)C(Cl)c2ccccc2)no1 (centres undefined)	–	inconclusive [inhibitor, single point]
COc1cc(OC)c(NC(=O)COc2ccccc2-c2nnc(-c3ccccc3)o2)cc1Cl	inactive: -13.9%	–
CCOc1ccccc1CNS(=O)(=O)c1cnc[nH]1	inactive: -25.6%	–
COC(=O)c1cc(C)nc2c1c(=O)nc(SCc1cc(C)ccc1C)n2C1CC1	–	inconclusive [inhibitor, single point]
CC1CCN(S(=O)(=O)c2cc(C(=O)Nc3ccccn3)ccc2Br)CC1	–	inconclusive [inhibitor, single point]
CCCN(Cc1cc2cc(C)ccc2[nH]c1=O)C(=O)c1cccc(Cl)c1	–	active: 23.1 µM
O=C(c1cc2c(s1)CCCC2)N1CCN(c2ccccc2)CC1	–	inconclusive [inhibitor, single point]
CCOC(=O)c1ccc(NC(=O)C2C3CCCCC32)cc1 (centres undefined)	–	inconclusive [inhibitor, single point]
CC(=O)Oc1cccc(C(=O)Nc2ccc3c(c2)C(=O)N(CC2CCCO2)C3=O)c1 (centres undefined)	inactive: -18.1%	–
Cc1nc2cc(C(=O)N3CCc4ccccc43)ccc2n1-c1ccc(F)c(F)c1	–	inconclusive [inhibitor, single point]
